Drawing on article PMC12820563, “FoxP3 forms a head-to-head dimer in vivo and stabilizes its multimerization on adjacent microsatellites”, this text covers binding signal for 31 sequences.

This is one part of the list.

The assay addresses T1, MBP-FoxP1dN (Mus musculus, UniProt P58462 326-579).
T1 sequence: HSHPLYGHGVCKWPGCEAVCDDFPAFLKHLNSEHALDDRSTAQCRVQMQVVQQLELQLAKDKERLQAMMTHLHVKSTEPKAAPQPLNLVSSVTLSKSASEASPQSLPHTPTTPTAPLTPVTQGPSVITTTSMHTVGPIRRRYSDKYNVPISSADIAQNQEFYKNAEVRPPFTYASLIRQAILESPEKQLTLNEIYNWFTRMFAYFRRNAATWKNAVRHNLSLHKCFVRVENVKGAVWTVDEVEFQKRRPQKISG
Put plainly: PD-seq (MBP pull-down with sequencing); 20 mM Tris-HCl pH 7.5, 100 mM NaCl, 1.5 mM MgCl2, 0.4 uM protein, 0.1 uM dsDNA library, 30 min, room temperature, amylose pull-down; high values mean tight binding. Particulars: protein: recombinant; tags: His6-MBP; chain copies: 2; dsDNA, one strand shown. The essentials:
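Binding is the reads-per-million enrichment of pull-down relative to input, pooled across replicates. For this, 0.4 µM His6-MBP-tagged mouse FoxP3 or FoxP1 fragment lacking the N-terminus, made in E. coli, was incubated with 0.1 µM Klenow-filled double-stranded degenerate DNA library for 30 min at room temperature in Tris pH 7.5 buffer with NaCl and MgCl2. Complexes bound to amylose resin were washed three times before proteinase K released the DNA for PCR barcoding and Illumina sequencing.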
Turning to “GATGATTGTTCTCCCAGCTGATGAATTATCCAGGTCGAGTAAACAAATTTTCCTAATCTTTCTGTTCAAGCGCCATCTAC”, the binding signal is 0.843 RPM ratio (pull-down/input).

In the case of “GATGATTGTTCTCCCAGCTGATGAATTTCCTTTCTCGAGTAAACAAATTTTCCTAATCTTTCTGTTCAAGCGCCATCTAC”, the binding signal was 0.78 RPM ratio (pull-down/input).

On to “GATGATTGTTCTCCCAGCTGATGAATTAGTTCTCTCGAGTAAACAAATTTTCCTAATCTTTCTGTTCAAGCGCCATCTAC”, for which the binding signal was 0.897 RPM ratio (pull-down/input).

In the case of “GATGATTGTTCTCCCAGCTGATGAATTACGTGCCTCGAGTAAACAAATTTTCCTAATCTTTCTGTTCAAGCGCCATCTAC”, the binding signal was 1.09 RPM ratio (pull-down/input).

Turning to “GATGATTGTTCTCCCAGCTGATGAATTTCCCTACTCGAGTAAACAAATTTTCCTAATCTTTCTGTTCAAGCGCCATCTAC”, the binding signal was 0.856 RPM ratio (pull-down/input).

As for “GATGATTGTTCTCCCAGCTGATGAATTGGTTTGGTCGAGTAAACAAATTTTCCTAATCTTTCTGTTCAAGCGCCATCTAC”, the binding signal was 0.947 RPM ratio (pull-down/input).

As to “GATGATTGTTCTCCCAGCTGATGAATTCCTATCGTCGAGTAAACAAATTTTCCTAATCTTTCTGTTCAAGCGCCATCTAC”, the binding signal is 0.886 RPM ratio (pull-down/input).

Consider “GATGATTGTTCTCCCAGCTGATGAATTTGCCCATTCGAGTAAACAAATTTTCCTAATCTTTCTGTTCAAGCGCCATCTAC”, for which the binding signal was 1.01 RPM ratio (pull-down/input).

Take “GATGATTGTTCTCCCAGCTGATGAATTCCTGTGATCGAGTAAACAAATTTTCCTAATCTTTCTGTTCAAGCGCCATCTAC”: the binding signal was 0.93 RPM ratio (pull-down/input).

With “GATGATTGTTCTCCCAGCTGATGAATTGGCAGACTCGAGTAAACAAATTTTCCTAATCTTTCTGTTCAAGCGCCATCTAC”, the binding signal was 0.771 RPM ratio (pull-down/input).

For the sequence “GATGATTGTTCTCCCAGCTGATGAATTCCCGAGGTCGAGTAAACAAATTTTCCTAATCTTTCTGTTCAAGCGCCATCTAC”, the binding signal was 0.751 RPM ratio (pull-down/input).

Regarding “GATGATTGTTCTCCCAGCTGATGAATTCATGTCTTCGAGTAAACAAATTTTCCTAATCTTTCTGTTCAAGCGCCATCTAC”, the binding signal is 0.94 RPM ratio (pull-down/input).

In the case of “GATGATTGTTCTCCCAGCTGATGAATTACCCCACTCGAGTAAACAAATTTTCCTAATCTTTCTGTTCAAGCGCCATCTAC”, the binding signal was 0.938 RPM ratio (pull-down/input).

With “GATGATTGTTCTCCCAGCTGATGAATTGGTTTATTCGAGTAAACAAATTTTCCTAATCTTTCTGTTCAAGCGCCATCTAC”, the binding signal is 1.17 RPM ratio (pull-down/input).

As for “GATGATTGTTCTCCCAGCTGATGAATTTTTCTAGTCGAGTAAACAAATTTTCCTAATCTTTCTGTTCAAGCGCCATCTAC”, the binding signal was 0.926 RPM ratio (pull-down/input).

Turning to “GATGATTGTTCTCCCAGCTGATGAATTAGACAAGTCGAGTAAACAAATTTTCCTAATCTTTCTGTTCAAGCGCCATCTAC”, the binding signal is 1.08 RPM ratio (pull-down/input).

As to “GATGATTGTTCTCCCAGCTGATGAATTTAAATATTCGAGTAAACAAATTTTCCTAATCTTTCTGTTCAAGCGCCATCTAC”, the binding signal is 1.08 RPM ratio (pull-down/input).

In the case of “GATGATTGTTCTCCCAGCTGATGAATTTCTCAGCTCGAGTAAACAAATTTTCCTAATCTTTCTGTTCAAGCGCCATCTAC”, the binding signal is 0.749 RPM ratio (pull-down/input).

Regarding “GATGATTGTTCTCCCAGCTGATGAATTTACCGGCTCGAGTAAACAAATTTTCCTAATCTTTCTGTTCAAGCGCCATCTAC”, the binding signal was 1 RPM ratio (pull-down/input).

As to “GATGATTGTTCTCCCAGCTGATGAATTAAGGAAGTCGAGTAAACAAATTTTCCTAATCTTTCTGTTCAAGCGCCATCTAC”, the binding signal was 0.789 RPM ratio (pull-down/input).

Consider “GATGATTGTTCTCCCAGCTGATGAATTGAAGGTCTCGAGTAAACAAATTTTCCTAATCTTTCTGTTCAAGCGCCATCTAC”, for which the binding signal was 0.792 RPM ratio (pull-down/input).

With “GATGATTGTTCTCCCAGCTGATGAATTAGATCCCTCGAGTAAACAAATTTTCCTAATCTTTCTGTTCAAGCGCCATCTAC”, the binding signal is 0.816 RPM ratio (pull-down/input).

On to “GATGATTGTTCTCCCAGCTGATGAATTGATCTGATCGAGTAAACAAATTTTCCTAATCTTTCTGTTCAAGCGCCATCTAC”, for which the binding signal is 0.968 RPM ratio (pull-down/input).

In the case of “GATGATTGTTCTCCCAGCTGATGAATTGTCATACTCGAGTAAACAAATTTTCCTAATCTTTCTGTTCAAGCGCCATCTAC”, the binding signal was 1.1 RPM ratio (pull-down/input).

As for “GATGATTGTTCTCCCAGCTGATGAATTTCGCCTCTCGAGTAAACAAATTTTCCTAATCTTTCTGTTCAAGCGCCATCTAC”, the binding signal was 0.919 RPM ratio (pull-down/input).

For the sequence “GATGATTGTTCTCCCAGCTGATGAATTTCCCCGGTCGAGTAAACAAATTTTCCTAATCTTTCTGTTCAAGCGCCATCTAC”, the binding signal was 0.731 RPM ratio (pull-down/input).

Consider “GATGATTGTTCTCCCAGCTGATGAATTATAGCGATCGAGTAAACAAATTTTCCTAATCTTTCTGTTCAAGCGCCATCTAC”, for which the binding signal was 0.975 RPM ratio (pull-down/input).

For the sequence “GATGATTGTTCTCCCAGCTGATGAATTCTCTTCATCGAGTAAACAAATTTTCCTAATCTTTCTGTTCAAGCGCCATCTAC”, the binding signal is 0.886 RPM ratio (pull-down/input).

In the case of “GATGATTGTTCTCCCAGCTGATGAATTAAATGCATCGAGTAAACAAATTTTCCTAATCTTTCTGTTCAAGCGCCATCTAC”, the binding signal was 1.69 RPM ratio (pull-down/input).

With “GATGATTGTTCTCCCAGCTGATGAATTCCGTAGCTCGAGTAAACAAATTTTCCTAATCTTTCTGTTCAAGCGCCATCTAC”, the binding signal is 0.761 RPM ratio (pull-down/input).

In the case of “GATGATTGTTCTCCCAGCTGATGAATTGAAGCAGTCGAGTAAACAAATTTTCCTAATCTTTCTGTTCAAGCGCCATCTAC”, the binding signal is 0.823 RPM ratio (pull-down/input).
